This is a noisy data set.
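Further: [psi-pin-] Saccharomyces cerevisiae expressing SupN fusions, induced by 100 µM Cu2SO4, selected 7 d at 30 °C without adenine and uracil, scored by deep sequencing of output versus input.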

A short description of one data set: amyloid nucleation score relative to library mode (yeast Sup35 reporter selection) (log enrichment difference); higher = more amyloid nucleation; sequences are the first 22 residues of the Bri2 peptide extended by up to 12 random residues. As to conditions: random library (experiment): 1;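 active = nucleation score significantly above 0 at FDR 0.05; inactive = not significantly above 0 or absent from output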.
EASNCFAIRHFENKFAVETLICLIGVSYRTWSSE returned an amyloid nucleation score of 6.28.

EASNCFAIRHFENKFAVETLICLIIRPDPGRVHC: the amyloid nucleation score entry was “inactive”.

EASNCFAIRHFENKFAVETLICLILFFRVSEGFT: the amyloid nucleation score entry was “inactive”.

With EASNCFAIRHFENKFAVETLICLILFNTVFPDIV, the amyloid nucleation score entry was “inactive”.

As to EASNCFAIRHFENKFAVETLICLILRHVSWNARR, the amyloid nucleation score entry is “inactive”.

Take EASNCFAIRHFENKFAVETLICLIMNSFMYAL: the amyloid nucleation score result was “inactive”.

Take EASNCFAIRHFENKFAVETLICLINIHI: the amyloid nucleation score was found to be 6.

As for EASNCFAIRHFENKFAVETLICLINWDDRLFRQ, the amyloid nucleation score worked out at 7.56.

The sequence EASNCFAIRHFENKFAVETLICLIQDCLFEEQLR had an amyloid nucleation score of 2.91.

Consider EASNCFAIRHFENKFAVETLICLIRALVRTTHVC, for which the amyloid nucleation score entry is “inactive”.

As for EASNCFAIRHFENKFAVETLICLIRVSSRFVPCL, the amyloid nucleation score entry was “inactive”.

On to EASNCFAIRHFENKFAVETLICLISRGLSATV, for which the amyloid nucleation score entry was “inactive”.

In turn, EASNCFAIRHFENKFAVETLICLISTLAGMGSRW gave an amyloid nucleation score of -0.359.

As for EASNCFAIRHFENKFAVETLICLISVSFNLPSKD, the amyloid nucleation score amounted to 8.23.

For the sequence EASNCFAIRHFENKFAVETLICLIVF, the amyloid nucleation score result is “inactive”.

Turning to EASNCFAIRHFENKFAVETLICLIVFGLHQAKSS, the amyloid nucleation score result was “inactive”.

Turning to EASNCFAIRHFENKFAVETLICLIVWTDKQAVRC, the amyloid nucleation score result is “inactive”.

Sequence EASNCFAIRHFENKFAVETLICLIWL gave an amyloid nucleation score of 4.11.

As to EASNCFAIRHFENKFAVETLICLIWLSVLYRQSR, the amyloid nucleation score entry was “inactive”.

Turning to EASNCFAIRHFENKFAVETLICLKA, the amyloid nucleation score entry was “inactive”.

As for EASNCFAIRHFENKFAVETLICLKAVDVCMWR, the amyloid nucleation score result was “inactive”.

EASNCFAIRHFENKFAVETLICLKDSRTKFTFRG registered an amyloid nucleation score of 4.14.

Consider EASNCFAIRHFENKFAVETLICLKF, for which the amyloid nucleation score is 4.37.

EASNCFAIRHFENKFAVETLICLKIVCCSYPYSG displayed an amyloid nucleation score of 5.76.

The same data set, now with this note: random library (experiment): 2.
Consider EASNCFAIRHFENKFAVETLICLIGPANSICGST, for which the amyloid nucleation score came out at 5.05.

In turn, EASNCFAIRHFENKFAVETLICLIGWILVTYVCA yielded an amyloid nucleation score of -0.409.

In turn, EASNCFAIRHFENKFAVETLICLIHEARRRGSRE came in with an amyloid nucleation score of 4.66.

As to EASNCFAIRHFENKFAVETLICLIHKKSHIKL, the amyloid nucleation score entry is “inactive”.

Turning to EASNCFAIRHFENKFAVETLICLIIFM, the amyloid nucleation score result was “inactive”.

For the sequence EASNCFAIRHFENKFAVETLICLIILCRFGSIM, the amyloid nucleation score result was “inactive”.

Turning to EASNCFAIRHFENKFAVETLICLIKTSPVGCSSD, the amyloid nucleation score was -0.148.

In the case of EASNCFAIRHFENKFAVETLICLILGIGRVYTD, the amyloid nucleation score result is “inactive”.

With EASNCFAIRHFENKFAVETLICLILIDASVSTMG, the amyloid nucleation score entry was “inactive”.

Take EASNCFAIRHFENKFAVETLICLILL: the amyloid nucleation score was determined as 3.8.

Regarding EASNCFAIRHFENKFAVETLICLILLPRWIKLRN, the amyloid nucleation score is -0.0198.

As for EASNCFAIRHFENKFAVETLICLILLVWPFILVY, the amyloid nucleation score entry was “inactive”.

Sequence EASNCFAIRHFENKFAVETLICLILSSPRGASSV gave an amyloid nucleation score of 4.52.

In turn, EASNCFAIRHFENKFAVETLICLINSA had an amyloid nucleation score of 3.1.

With EASNCFAIRHFENKFAVETLICLIRDYLDLGAYR, the amyloid nucleation score was determined as 0.545.

As for EASNCFAIRHFENKFAVETLICLIRSSTGWIMFL, the amyloid nucleation score entry is “inactive”.

With EASNCFAIRHFENKFAVETLICLIRSSTRFGPDT, the amyloid nucleation score result was “inactive”.

As to EASNCFAIRHFENKFAVETLICLISCSIIINHLR, the amyloid nucleation score result was “inactive”.

Take EASNCFAIRHFENKFAVETLICLISSYFWNRFRS: the amyloid nucleation score entry is “inactive”.

EASNCFAIRHFENKFAVETLICLIVCFLYSSLVP: the amyloid nucleation score result is “inactive”.

Take EASNCFAIRHFENKFAVETLICLIVMVTHTGYSL: the amyloid nucleation score entry was “inactive”.

For EASNCFAIRHFENKFAVETLICLIVSFRSRCYIV, the amyloid nucleation score result was “inactive”.

Consider EASNCFAIRHFENKFAVETLICLIVWCYNSYVE, for which the amyloid nucleation score result was “inactive”.

Take EASNCFAIRHFENKFAVETLICLIWTDNV: the amyloid nucleation score entry is “inactive”.

On to EASNCFAIRHFENKFAVETLICLIWVLHVNSILT, for which the amyloid nucleation score result was “inactive”.

EASNCFAIRHFENKFAVETLICLIYISESGYIQW: the amyloid nucleation score entry is “inactive”.

Turning to EASNCFAIRHFENKFAVETLICLK, the amyloid nucleation score was 1.08.

EASNCFAIRHFENKFAVETLICLKCSMSVGGLWC yielded an amyloid nucleation score of 6.93.

Take EASNCFAIRHFENKFAVETLICLKCYIWSFTTTF: the amyloid nucleation score entry was “inactive”.

Consider EASNCFAIRHFENKFAVETLICLKGMQSWIICSS, for which the amyloid nucleation score result was “inactive”.

In the case of EASNCFAIRHFENKFAVETLICLKILFINLHGLG, the amyloid nucleation score result is “inactive”.

The data set is the same for the next values; noted with them: random library (experiment): 3.
Take EASNCFAIRHFENKFAVETLICLILGWDGRSLSA: the amyloid nucleation score is 5.59.

Turning to EASNCFAIRHFENKFAVETLICLIMAVVHRGHKK, the amyloid nucleation score entry was “inactive”.

In the case of EASNCFAIRHFENKFAVETLICLIMLPLMCSMWG, the amyloid nucleation score result is “inactive”.

The sequence EASNCFAIRHFENKFAVETLICLINTCGCGRCLD displayed an amyloid nucleation score of 7.87.

In the case of EASNCFAIRHFENKFAVETLICLIPYRTQSRAHK, the amyloid nucleation score stood at 2.43.

On to EASNCFAIRHFENKFAVETLICLIQDLGRRRGLR, for which the amyloid nucleation score is 3.72.

In turn, EASNCFAIRHFENKFAVETLICLIRGRFWWVWEL displayed an amyloid nucleation score of 6.34.

In the case of EASNCFAIRHFENKFAVETLICLIS, the amyloid nucleation score turned out to be 8.59.

As to EASNCFAIRHFENKFAVETLICLISYLDNVIGTG, the amyloid nucleation score result was “inactive”.

EASNCFAIRHFENKFAVETLICLIT: the amyloid nucleation score worked out at 7.11.

For EASNCFAIRHFENKFAVETLICLITL, the amyloid nucleation score amounted to 5.

As for EASNCFAIRHFENKFAVETLICLIVPEEFHSPAG, the amyloid nucleation score is 7.02.

As for EASNCFAIRHFENKFAVETLICLIVTWFSVLYGC, the amyloid nucleation score entry was “inactive”.

For the sequence EASNCFAIRHFENKFAVETLICLIVWRQGFQT, the amyloid nucleation score entry was “inactive”.

Consider EASNCFAIRHFENKFAVETLICLIYGQARRGLAP, for which the amyloid nucleation score result is “inactive”.

Consider EASNCFAIRHFENKFAVETLICLKAVLGGWGLQR, for which the amyloid nucleation score entry is “inactive”.

Regarding EASNCFAIRHFENKFAVETLICLKDSN, the amyloid nucleation score entry was “inactive”.

Regarding EASNCFAIRHFENKFAVETLICLKEVGWALMPLT, the amyloid nucleation score entry was “inactive”.

In turn, EASNCFAIRHFENKFAVETLICLKGSACIGLPHG gave an amyloid nucleation score of 3.27.

As to EASNCFAIRHFENKFAVETLICLKICAASGELIA, the amyloid nucleation score entry is “inactive”.

These data come from the supplement of paper PMC12067230.
